This is an account of results in the supplement of paper PMC4723716.

The subject of this assay is Plasmodium falciparum NF54 stage V gametocytes. The assay is described as follows: viability index relative to DMSO control (fraction); higher = less gametocyte killing. The following applies: 2.5 µM, incubation time: 72 h. In outline:
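In 1,536-well plates, 10 µl of serum-free medium holding P. falciparum NF54 stage V gametocytes (0.75% gametocytemia, 1.25% hematocrit) received compound at 2.5 µM for 72 hr at 37°C in low oxygen. After one to two hours with 3 µl of 2.5 µM MitoTracker Red CMXRos containing 0.13% saponin, red particles of 20–70 µm2 were counted in a single field per well. Viability index is reported as the particle count over the plate mean of wells treated with solvent only.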

The mark [1] stands for this setting: library set: Broad Institute DOS.
Setting [2] is: library set: Broad Institute Blood Stage.

± gives the uncertainty stated by the source. Whole data set: some 9,900 compounds, median “viability index relative to DMSO control” near 1, cut for the lowest 2% near 0.85. This is one part of the list.

The compound `CCCN1[C@H](C(=O)N2CCOCC2)[C@@H](CO)[C@@H]2Cn3c(ccc(-c4ccccc4F)c3=O)[C@@H]21` had a viability index under setting [1] of 1.037 ± 0.0065.
The same measure, in the same setting: the result for `CO[C@H](CN(C)S(=O)(=O)c1ccc(F)cc1)[C@@H](C)CN(Cc1ccccc1Cl)[C@@H](C)CO` reads 0.986 ± 0.083; that for `O=C(C[C@H]1CC[C@@H]2[C@H](COC[C@H](O)CN2C(=O)c2ccc(F)cc2)O1)N1CCCCC1`, 1.1 ± 0.052.
Still for that read-out and setting: the result for `COc1ccc(-c2ccc([C@H]3[C@@H](CO)N4C(=O)CN(C(=O)Cc5ccccn5)C[C@@H]34)cc2)cc1` reads 0.976 ± 0.052; that for `CC(=O)N1[C@H](CNC(=O)CN(C)C)[C@H](c2ccc(C3=CCCCC3)cc2)[C@@H]1CO`, 0.953 ± 0.015; that for `CN(C)CC(=O)N1[C@H](C#N)[C@H](c2ccccc2-c2ccccc2F)[C@@H]1CO`, 1.1 ± 0.066.
Same read-out and setting: the figure for `CO[C@@H](CN(C)Cc1cc(F)ccc1F)[C@H](C)CN([C@H](C)CO)S(=O)(=O)c1ccc(C)cc1` is 0.987 ± 0.032; for `C[C@H](CO)N1C[C@H](C)[C@H](CN(C)S(=O)(=O)c2ccccc2)Oc2ccc(NC(=O)C3CC3)cc2C1=O` it is 0.919 ± 0.13; for `CCCNC(=O)N1C[C@@H](C)[C@H](OC)CN(C)C(=O)c2ccc(NC(=O)CC)cc2OC[C@@H]1C` it is 1.04 ± 0.049.
In turn, `COC(=O)C[C@H]1C[C@H]2c3cc(NC(=O)c4ccc5c(c4)OCO5)ccc3O[C@H]2[C@H](CO)O1` showed a viability index under setting [1] of 1.05 ± 0.048.
The same measure, in the same setting: the figure for `CC(C)NC(=O)N(C)C[C@@H]1Oc2c(NS(=O)(=O)c3cccs3)cccc2C(=O)N([C@H](C)CO)C[C@H]1C` is 0.987 ± 0.036; for `CC(C)[C@H]1COCn2nncc2CCCC(=O)N1` it is 0.936 ± 0.06; for `CO[C@H](CN(C)Cc1ccc2c(c1)OCO2)[C@H](C)CN(C(=O)c1ccccc1)[C@@H](C)CO` it is 1.067 ± 0.0074.
Take `C[C@H](CO)N1C[C@H](C)[C@@H](CN(C)C(=O)Nc2ccc3c(c2)OCO3)OCc2ccccc2-c2c(n(C)c3ccccc23)C1=O`: the viability index under setting [1] is 1.019 ± 0.0059.
With `C[C@H](O)C#Cc1ccc([C@@H]2[C@@H](CO)N3CCCCN(C(=O)c4ccc5c(c4)OCO5)C[C@@H]23)cc1`, the viability index under setting [1] amounted to 1.05 ± 0.027.
Same read-out and setting: the figure for `CC(C)C#Cc1ccc([C@H]2[C@@H](CO)N3C(=O)CN(C(=O)c4ccc5c(c4)OCO5)C[C@H]23)cc1` is 1.067 ± 0.0022.
`COc1ccccc1S(=O)(=O)N(C)C[C@@H]1OCc2ccccc2-c2c(n(C)c3ccccc23)C(=O)N([C@H](C)CO)C[C@@H]1C` gave a viability index under setting [2] of 0.965 ± 0.054.
In the case of `CCN(C[C@@H]1[C@@H](c2ccc(C3=CCCCC3)cc2)[C@@H](CO)N1CC1CC1)C(C)=O`, the viability index under setting [1] was 0.944 ± 0.0088.
Turning to `C[C@@H]1CN([C@@H](C)CO)C(=O)c2cccc(NC(=O)Nc3ccccc3)c2O[C@@H]1CN(C)C(=O)Nc1ccc(F)cc1`, under setting [2], the viability index came to 0.727 ± 0.041.
`Cc1noc(C)c1NC(=O)Nc1ccc2c(c1)C(=O)N([C@H](C)CO)C[C@H](C)[C@H](CN(C)S(=O)(=O)c1cccs1)OCCCC[C@@H](C)O2` gave a viability index under setting [1] of 1.07 ± 0.05.
Consider `CCCNC(=O)N1CC2(C1)[C@@H](c1ccccc1)[C@@H](CO)N2C(=O)CC1CC1`, for which, under setting [1], the viability index stood at 1.04 ± 0.083.
As for `COc1ccc(S(=O)(=O)N(C)C[C@H]2Oc3c(NC(=O)c4nc5ccccc5s4)cccc3C(=O)N([C@H](C)CO)C[C@H]2C)cc1`, under setting [1], the viability index was 1.03 ± 0.022.
On the same count and under the same terms, the figure for `COc1ccccc1-c1ccc([C@@H]2[C@@H](C#N)N[C@@H]2CO)cc1` is 1.07 ± 0.07; for `C[C@H](NC(=O)C[C@@H]1C=C[C@@H](NS(=O)(=O)c2cccc(F)c2)[C@@H](CO)O1)c1ccccc1` it is 1.07 ± 0.04; for `COCC(=O)Nc1ccc2c(c1)[C@@H]1C[C@@H](CC(=O)N[C@H](C)c3ccccc3)O[C@@H](CO)[C@@H]1O2` it is 1.01 ± 0.02.
`C[C@H](CO)N1C[C@H](C)[C@@H](CN(C)S(=O)(=O)c2ccccc2F)Oc2ncc(/C=C/c3ccccc3)cc2C1=O` had a viability index under setting [1] of 1.05 ± 0.049.
Still for that read-out and setting: the figure for `CCCNC(=O)N1CC2(C1)[C@@H](c1ccccc1)[C@@H](CO)N2Cc1ccc(Cl)cc1` is 1.11 ± 0.015; for `C[C@H]1CN([C@@H](C)CO)C(=O)c2c(c3ccccc3n2C)-c2ccccc2CO[C@H]1CN(C)C(=O)NC1CCCCC1` it is 1.03 ± 0.08.
Same read-out and setting: the figure for `N#C[C@@H]1[C@@H](c2ccccc2C2=CCCC2)[C@H](CO)N1C(=O)NC1CCCCC1` is 1.08 ± 0.077; for `CCCNC(=O)N1[C@H](CO)[C@H](c2ccc(-c3ccc(C#N)cc3)cc2)[C@@H]1CNC` it is 1.06 ± 0.072; for `O=C(C[C@H]1CC[C@@H]2[C@H](COC[C@H](O)CN2Cc2ccc(C(F)(F)F)cc2)O1)N1CCc2ccccc2C1` it is 0.846 ± 0.011.
Consider `N#C[C@H]1[C@H](c2ccccc2C2=CCCC2)[C@H](CO)N1C(=O)NC1CCCCC1`, for which, under setting [1], the viability index was 0.986 ± 0.053.
Consider `COc1ccc2c3c([C@@H](CO)N(C[C@]33CCN(Cc4ccccn4)CC3)C(=O)Nc3ccc(F)cc3)n(C)c2c1`, for which the viability index under setting [1] was 1.05 ± 0.015.
Same read-out and setting: the result for `CCS(=O)(=O)Nc1ccc2c(c1)C(=O)N(C)C[C@@H](OC)[C@H](C)CN(CC1CCCCC1)[C@H](C)CO2` reads 1.022 ± 0.0074; that for `C/C=C/c1cccc(-c2nc(C(=O)N3CCCCC3)cc3c2[C@H](CCO)N(C(=O)NC(C)C)C3)c1`, 0.995 ± 0.021.
In the case of `COc1ccc2c3c([C@H](CO)N(C)C[C@]33CN(C3)S(=O)(=O)c3cccs3)n(C)c2c1`, under setting [1], the viability index turned out to be 1.04 ± 0.075.
As to `O=C(NCc1ccc2c(c1)OCO2)[C@@H]1[C@@H](CO)[C@@H]2Cn3c(cccc3=O)[C@H]1N2Cc1cncnc1`, the viability index under setting [1] was found to be 1.07 ± 0.071.
Compound `O=S(=O)(c1ccccc1)N1[C@@H]2CNc3ccccc3[C@@H]2[C@@H]1CO` displayed a viability index under setting [1] of 1.03 ± 0.053.
As to `CCCNC(=O)N1CC(=O)N2[C@@H](CO)[C@@H](c3ccc(C#CCC4CCCC4)cc3)[C@@H]2C1`, under setting [1], the viability index turned out to be 1.02 ± 0.0068.
For `COc1ccc(NC(=O)N(C)C[C@@H]2Oc3ccc(NC(=O)Nc4cccc5ccccc45)cc3CC(=O)N([C@H](C)CO)C[C@H]2C)cc1`, the viability index under setting [1] was determined as 0.993 ± 0.14.
Still for that read-out and setting: the result for `CO[C@H]1CN(C)C(=O)c2cc(NC(=O)C3CCOCC3)ccc2OC[C@H](C)NC[C@@H]1C` reads 0.972 ± 0.0054; that for `C[C@@H](NC(=O)C[C@@H]1CC[C@@H]2[C@H](COC[C@H](O)CN2Cc2ccc(C(F)(F)F)cc2)O1)c1ccccc1`, 1.09 ± 0.067; that for `C[C@H](CO)N1C[C@H](C)[C@@H](CN(C)S(=O)(=O)c2ccc([N+](=O)[O-])cc2)OCc2ccccc2-c2c(n(C)c3ccccc23)C1=O`, 0.896 ± 0.046.
On the same count and under the same terms, the result for `OC[C@H]1[C@H](c2ccccc2)C2(CN(Cc3cccnc3)C2)N1Cc1ccncc1` reads 0.9974 ± 0.0094; that for `CO[C@H]1CN(C)C(=O)c2cc(NC(=O)NC(C)C)ccc2OC[C@H](C)N(Cc2ccccc2)C[C@@H]1C`, 1.016 ± 0.0041; that for `O=C(C[C@@H]1CC[C@H]2[C@@H](COC[C@H](O)CN2CCC(F)(F)F)O1)NCc1ccc2c(c1)OCO2`, 1 ± 0.023.
Under setting [1], `CC(C)NC(=O)N(C)C[C@@H]1Oc2ccc(NC(=O)Cc3ccccc3)cc2CC(=O)N([C@@H](C)CO)C[C@@H]1C` registered a viability index of 0.995 ± 0.13.
Same read-out and setting: the figure for `CO[C@H]1CC[C@@H]2CCOc3c(C#N)cccc3C(=O)N(C)CCCC(=O)N(C)C[C@@H]1O2` is 0.934 ± 0.11; for `C[C@@H]1CN([C@@H](C)CO)C(=O)c2cc(NC(=O)NC3CCCCC3)ccc2O[C@H]1CN(C)S(C)(=O)=O` it is 0.971 ± 0.089.
Under setting [1], `O=C1CN(S(=O)(=O)Cc2ccccc2)C[C@@H]2[C@H](c3ccc(C#Cc4ccccc4)cc3)[C@H](CO)N12` came in with a viability index of 0.929 ± 0.16.
On the same count and under the same terms, the figure for `C[C@@H]1CN([C@@H](C)CO)C(=O)c2cc(NS(=O)(=O)c3cccs3)ccc2O[C@H]1CN(C)S(=O)(=O)c1ccc(Cl)cc1` is 0.953 ± 0.098.
The same measure, in the same setting: the result for `COCc1cn(CC[C@@H]2CC[C@H](NC(=O)Nc3c(C)noc3C)[C@@H](CO)O2)nn1` reads 1.07 ± 0.097; that for `COc1ccccc1CNC(=O)C[C@@H]1CC[C@@H]2[C@@H](COc3ccc(NC(C)=O)cc3C(=O)N2C)O1`, 0.959 ± 0.09; that for `CCCNC(=O)[C@H]1[C@H](CO)[C@H]2Cn3c(ccc(/C=C/c4ccccc4)c3=O)[C@H]2N1CC1CC1`, 0.97 ± 0.017.
Still for that read-out and setting: the figure for `O=C(C[C@H]1CC[C@H]2[C@@H](COC[C@@H](O)CN2C(=O)Nc2ccc(F)cc2)O1)NC1CCC1` is 1.05 ± 0.033.
As for `O=C(C[C@@H]1CC[C@H]2[C@@H](COC[C@H](O)CN2C(=O)Nc2cccc(F)c2)O1)NCCCN1CCOCC1`, the viability index under setting [1] came to 1.1 ± 0.041.
Consider `O=C(C[C@H]1CC[C@H]2[C@@H](COC[C@H](O)CN2C(=O)c2cccnc2)O1)NCC1CC1`, for which the viability index under setting [1] is 1.03 ± 0.081.
On the same count and under the same terms, the result for `COc1cccc(C(=O)Nc2ccc3c(c2)C(=O)N(C)[C@@H]2CC[C@H](CC(=O)N[C@@H](C)c4ccccc4)O[C@H]2CO3)c1` reads 1.08 ± 0.21; that for `C[C@@H]1CN([C@@H](C)CO)C(=O)CCCn2nncc2CO[C@@H]1CN(C)C(=O)Nc1cccc(Oc2ccccn2)c1`, 1.06 ± 0.02.
On to `C/C=C/c1ccc([C@@H]2[C@@H](CN(CC)C(C)=O)N(Cc3cccnc3)[C@H]2CO)cc1`, for which the viability index under setting [1] stood at 1.03 ± 0.012.
Under setting [1], `Cc1nn(C)cc1NC(=O)C[C@@H]1CC[C@@H]2[C@@H](COc3ccc(NC(=O)c4cccc(F)c4)cc3C(=O)N2C)O1` showed a viability index of 1.13 ± 0.051.
As for `O=C(Cc1cccnc1)N1CC(=O)N2[C@H](CO)[C@H](c3ccc(/C=C/c4ccccc4)cc3)[C@@H]2C1`, the viability index under setting [1] turned out to be 1.05 ± 0.067.
Take `O=C(Nc1ccc2c(c1)[C@@H]1C[C@@H](CC(=O)N3CCOCC3)O[C@H](CO)[C@@H]1O2)Nc1ccccc1F`: under setting [1], the viability index is 1.05 ± 0.02.
Same read-out and setting: the result for `C[C@H]1CN([C@@H](C)CO)C(=O)c2c(c3ccccc3n2C)-c2ccccc2CO[C@H]1CN(C)C(=O)[C@@H](Cc1ccccc1)N(C)C` reads 0.992 ± 0.13.
Same read-out and setting: the figure for `O=C(NC[C@@H]1[C@H](c2ccccc2)[C@@H](CO)N1Cc1cccnc1)c1ccccn1` is 0.966 ± 0.04; for `CCC(=O)N1[C@H](CO)[C@H](c2ccccc2-c2ccccc2)[C@@H]1C#N` it is 1.12 ± 0.15.
Take `COc1ccc2c3c([nH]c2c1)[C@@H](CO)N(Cc1cc(OC)cc(OC)c1)C[C@]31CN(C1)C(=O)Nc1c(C)noc1C`: the viability index under setting [1] turned out to be 0.974 ± 0.12.
As to `N#C[C@@H]1[C@@H](c2ccc(C#Cc3cccc(F)c3)cc2)[C@H](CO)N1C(=O)C1CCOCC1`, the viability index under setting [1] is 0.997 ± 0.057.
On the same count and under the same terms, the figure for `C/C=C/c1ccc([C@@H]2[C@@H]3CN(C(=O)Nc4ccc(C(F)(F)F)cc4)C[C@H]2N3)cc1` is 0.868 ± 0.081.
Same read-out and setting: the result for `CO[C@@H](CN(C)C(=O)c1cnccn1)[C@@H](C)CN([C@@H](C)CO)S(=O)(=O)c1ccccc1` reads 1.01 ± 0.048.
